Several values for one entry are separate records, joined by “and”; a condition that tells them apart may be missing. Equal values may be shown once. Inconclusive results, whose numbers are uncertain, are shown with a selection of clear calls. Potencies beside an inconclusive call are fits to weak or partial responses and may not hold up. Activity calls are given as the source filed them. Calls come from the whole dose curve; as a rule, active = well fitted cell-killing curve with a large enough effect; inconclusive = small, poorly fitted or top-dose-only effect, or effect the other way; inactive = no such curve, though single readings can be large or run the other way.
Legend:
[1] = Viability qHTS for spleen associated tyrosine kinase inhibitor (SYKi) naive MV4-11 cells (AID 1963823); conditions: MV4-11 AML viability, CellTiter-Glo luminescence, 72 h; series mostly up to 45 µM; note: nearly all actives have a fitted effect of over 40% in size
Summary of the method: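 Viability of MV4-11 AML cells lacking prior SYK inhibitor exposure is scored by CellTiter-Glo luminescence following 72 hr compound incubation at 37 C, 5% CO2, seeded at 500 cells per well.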

[2] = Viability qHTS for spleen associated tyrosine kinase inhibitor (SYKi) drug resistant MV4-11 cells (AID 1963824); note: nearly all actives have a fitted effect of over 35% in size
Summary of the method: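 SYK inhibitor-resistant MV4-11 AML cells, 500 per well, added to predispensed compounds and incubated 72 hr at 37 C, 5% CO2. Viability measured by CellTiter-Glo luminescence after 10 min at room temperature.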
Potency is the fitted concentration of half-maximal effect; tags give direction and shape of the fitted curve.

Compound	Potency [1]	Potency [2]
Cc1ccccc1NC(=O)Nc1ccc(CN2C(=O)N([C@@H](CC(C)C)C(=O)N[C@@H](CC(=O)O)c3ccccc3)C(=O)C2(C)C)cc1	inconclusive: 18.4 µM [cytotoxic, single point]	inconclusive: 25.9 µM [cytotoxic, single point]
CC(=O)OC(C)(C)/C=C/C(=O)[C@](C)(O)[C@H]1C(O)C[C@@]2(C)[C@@H]3CC=C4[C@@H](C=C(O[C@@H]5O[C@H](CO)[C@@H](O)[C@H](O)[C@H]5O)C(=O)C4(C)C)[C@]3(C)C(=O)C[C@]12C (some centres not stated)	inconclusive: 5.44 µM [cytotoxic, partial curve]	inconclusive: 9.68 µM [cytotoxic, single point]
Nc1ncnc2n[nH]c(Nc3ccc(F)cc3)c12	inconclusive: 9.2 µM [cytotoxic, partial curve] and inconclusive: 5.8 µM [cytotoxic, full curve]	active: 6.51 µM and inconclusive: 5.17 µM [cytotoxic, partial curve]
CN1c2c(nc(N)[nH]c2=O)NC[C@@H]1CNc1ccc(C(=O)N[C@@H](CCC(=O)O)C(=O)O)cc1	inactive	inactive
C=CC(C)(O)C1CC2C3(C)CCCC(C)(C)C3C(O)C(O)C2(C)O1 (configuration not stated)	inconclusive: 20.2 µM [cytotoxic, single point]	inconclusive: 20.2 µM [cytotoxic, single point]
CC1=C2C[C@@]3(C)[C@@H](CCC[C@@H]3C)C[C@@]2(O)OC1=O	inconclusive: 1.84 µM [cytotoxic, partial curve, poor fit]	inconclusive: 14.6 µM [cytotoxic, partial curve]

Reference: PubChem BioAssay (NCATS)
